In the RNAGym collection of RNA variant scans (doi:10.1093/nar/gkz1192) one finds self-cleavage data, which are given here for 34 variants.

The source gives no read counts; variants with many changes may rest on few reads.

First the molecules themselves.
B1: CPEB3 Ribozyme (parent)
chain: UAACAGGGGGCCACAGCAGAAGCGUUCACGUCGCAGCCCCUGUCAGAUUCUGGUGAAUCUGCGAAUUCUGCUGUAUAUCUC

This series covers variants of B1. Briefly: self-cleavage, relative activity (ratio to wild type); higher = more cleavage; in vitro, sequencing. In a few lines:
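CPEB3 self-cleaving ribozyme mutant libraries were made by rounds of error-prone PCR, barcoded, and transcribed in vitro with T7 RNA polymerase for 5 hours at 37°C. Cleavage occurred during transcription and a 15 min DNase I step before EDTA stop. RNAs were reverse transcribed with template switching and Illumina-sequenced, with DNA sequencing mapping barcodes to variants. Relative activity is the variant's cleaved/total read fraction divided by wild type's (minimum 5 reads), averaged across three batches.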
Consider UAACAGGGGGCCACGGCGGAAGCGUUCACGUCGCAGACCCUGUCAGAUUCUGGUGAAUCUGCGAAUUCCGCUGUAUAUCUC, for which the self-cleavage stood at 0.15.

As to UAACAGGGGGCCACGGCGGAAGCGUUCACGUCGCGGCCCCUGUCAGAUUCUGGUGGAUCUGCGAAUUCUGCUGUAUAUCUC, the self-cleavage worked out at 0.15.

For the variant UAACAGGGGGCCACCGCAGAAGCGUUCACGUCGCAGCCCCUGUCAGAUUCAGGUGAAUCUGCGAAUCCUGCUGUAUAUCUC, the self-cleavage turned out to be 0.16.

For UAACAGGGGGCCACCGCAGAAGCGCUCACGUCGCAGCCCCUGUCAGAUUCUGGUGAAUCUGCGAAUUCUGCUGUAUACCUC, the self-cleavage came out at 0.28.

Regarding UAACAGGGGGCCACCGCAGAAGCGUUCACGUCGCAGCCCCUGUCAGAUCCUGGUGAAUCUGCGAAUUCUGCUGGAUUUCUC, the self-cleavage is 0.64.

In the case of UAACAGGGGGCCACCGCAGAAGCGCCCGCGUCGCAGCCCCUGUCAGAUUCUGGUGAAUCUGCGAAUUCCGCUGUAUAUCUC, the self-cleavage stood at 0.25.

Regarding UAACAGGGGGCCACGGCGGAAGCGCUCACGUCGCAGCCCCUGUCAGAUUCUGGUGAAUCUGCGAAUUCUGCUGUAUAUCCC, the self-cleavage worked out at 0.08.

Take UAACAGGGGGCCACGGCCGAAGCGUACACGUCGCAGCCCCUGUCAGAUACUGGUGUGUCUGCGAAUUCUGCUGUAUAUCUC: the self-cleavage was determined as 0.26.

Consider UAACAGGGGGCCACCGCAGAAGCGUCCACGUCGCAGCCCCUGUCAGACUCUGGUGAAUCUGCGAAUUCUGCUGCUUAUCUC, for which the self-cleavage amounted to 0.1.

In the case of UAACAGGGGGCCACGGCGGAAGCGUUAACGUCGCAGCCCCCGUCAGAUUCUGGUGGAUCUGCGAAUUCUGCUGUAUAUCUC, the self-cleavage is 0.22.

On to UAACAGGGGGCCACGGCGGGAGCGUUCACGUCGCAGCCCCUGCCUGAAUCUGGUGAAUCUGCGAAUUCUGCUGUAUAUCUC, for which the self-cleavage was 0.11.

In the case of UAACAGGGGGCCACGGCGGAAGCGUUCACGUCGCAGCCCCAGUCUGAAUCUGAUGAAUCUGCGAAUUCUGCCGUAUAUCUC, the self-cleavage is 0.37.

For UAACAGGGGGCCACGGCGGAAGCGUACACGUCGCAGCCCCAGUCAGAUUCUGGAGAAUCUGCGGAUUCUGCUGAAUAUCUC, the self-cleavage came out at 0.07.

For the variant UAACAGGGGGCCACCGCAGAAGCGUUCACGCCGCAUCCCCUGUCAGAUUCUGGUGAAUCUGCGAAUUCUGCUGUAUAUCUC, the self-cleavage was found to be 0.04.

Turning to UAACAGGGGGCCACCGCAGAAGCGUACACGUCGCAGCGCCUGUCAGAUUCUGGUGAAUCUGCGAAUUCUGCUGUAUAUCUC, the self-cleavage was 0.23.

UAACAGGGGGCCACCGCAGAAGCGUUCACGCCGCAGCCCCUGUCAGAUUCUGGUGAAUCUGCGAAUCCUGCUGUAUAUCUC: the self-cleavage is 0.22.

UAACAGGGGGCCACGGCGGAAGCGUUCACGUCGCAGCCCCUGUCAGAUUCUGGUUAAUCUGCGAAUUCAGCUGUAUAUCAC: the self-cleavage stood at 0.12.

As to UAACAGGGGGCCACCGCAGAAGCGCCCACGUCGCAGCCCCUGUCAGAUUCUGGUGAAUCUGCGAACUCUGCUGUAUAUCUC, the self-cleavage came out at 0.06.

As for UAACAGGGGGCCACCGCAGAAGCGUUCACGUCGCAGCCCCCGUCGGAUUCUGGUGAAUCUGCGAAUUCUGCCGUAUAUCUC, the self-cleavage was 0.88.

Regarding UAACAGGGGGCCACCGCAGAAGCGUUCACGUUGCAGCCGCUGUCAGAUUCUGGUGAAUCUGCGAAUUCUGCUGUAUACCUC, the self-cleavage was determined as 0.06.

Consider UAACAGGGGGCCACGGCCGAAGCGUUCACGUCGCAGCCCCUGUCAGAUUCUGGUGAAUCCGCGAAUUCUGCUGUAUAUCUC, for which the self-cleavage amounted to 0.07.

For the variant UAACAGGGGGCCACCGCAGAAGCGUACUCGUUGCAGCCCCUGUCAGAUUCUGGUGAAUCUGCGAAUUCUGCUGUAUAUCUC, the self-cleavage was 0.26.

On to UAACAGGGGGCCACCGCAGAAGCGUUCACGUCGCAGCCCCUGUCAGAUUCUGGCGAAACUGCGAAUUCUGCUGUAUUUCUC, for which the self-cleavage is 0.14.

Turning to UAACAGGGGGCCACGGCGGAGGCGUUCACGUCGCAGCCCCUGUCAGAUUCUGGAGAACCUGCGAAUUCUGCUGUAUAUCUC, the self-cleavage turned out to be 0.06.

As to UAACAGGGGGCCACGGCGGAGGCGUUCACGUCGCAGCCCCUGUCAGAUUCUGGUGAACCUGCGAAUACAGCUGUAUAUCUC, the self-cleavage was 0.14.

UAACAGGGGGCCACCGCAGAAGCGUUCACGUCGCAGCCCCUGCCGGAUUCUGGUGAAUCUGCGACUUCUGCUGUAUCGCUC: the self-cleavage was 0.09.

As to UAACAGGGGGCCACCGCAGAAGCGUUCACGUCGCAGCCCCAGUCAGAUUCUGGCGAAUCUGCGAAUUCUGCUGUAUAUCUC, the self-cleavage worked out at 0.38.

In the case of UAACAGGGGGCCACGGCGGAAGCGUUCACGUCGCAGCCCCUGUCGGAUUCUGAUGAAUCCGCGAAUUCUGCUGUAUAUCUC, the self-cleavage was 0.46.

Turning to UAACAGGGGGCCACGGCGGAAGCGUUCACGUCGCAGCCCCUGUCAGAUUCUGGUGAUCCUGCGAAUCCUGCUGUAUAUCUC, the self-cleavage worked out at 0.07.

With UAACAGGGGGCCACCGCAGAAGCGUCCACGUCGCAGCCCCUGUCAGAUUCUGGUGAAUCUGCGAAUUCCGCUGUAUAUCUC, the self-cleavage amounted to 0.04.

For the variant UAACAGGGGGCCACGGCGGAAGCGUUCACGUCGCAGCCCCUGUCAGAUUCUGGUGUAUCUGCGAAUACUGCUGUAUAUCUC, the self-cleavage came to 0.12.

Regarding UAACAGGGGGCCACGGCGGAAGCGUUCACGUCGCAGCCCCCGUCAGAUUCUGGUGAAUCUGCGAUUUCAGCUGUAUAUCUC, the self-cleavage was found to be 0.09.

Regarding UAACAGGGGGCCACGGCGGAAGCGUUCACGUCGCAGCCCCUGUCAGAUUCUGGUGGAUCUGCGAAUUCUGCUGUACAUCUC, the self-cleavage came out at 0.16.

Turning to UAACAGGGGGCCACCGCAGAAGCGUUCACGUCGCAGCCCCUGUCAGAUUCCGGUGAAUCUGCGAAUUCUGCUGAAUAUCUC, the self-cleavage amounted to 0.99.
